The other results are listed elsewhere or left out. The energies were worked out here from pooled read counts, against the library average; single values are noisy.

The assay concerns the target T1, Pho4 (S. cerevisiae) (UniProt P07270).
T1 sequence: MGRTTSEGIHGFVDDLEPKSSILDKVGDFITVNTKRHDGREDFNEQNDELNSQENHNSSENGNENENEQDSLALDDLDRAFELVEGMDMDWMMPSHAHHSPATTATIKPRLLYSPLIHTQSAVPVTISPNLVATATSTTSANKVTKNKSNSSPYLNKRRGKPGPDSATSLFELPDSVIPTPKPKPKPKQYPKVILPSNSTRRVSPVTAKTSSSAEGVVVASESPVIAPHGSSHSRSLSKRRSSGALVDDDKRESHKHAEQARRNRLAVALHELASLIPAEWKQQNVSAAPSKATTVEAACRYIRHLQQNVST
Nature of the assay: relative binding free energy (BET-seq); higher = weaker binding. To be noted: reference: library average.
On to TGATGCACGTGCGTGG, for which the “relative binding free energy” value was -0.2 kcal/mol. In the case of GTGCTCACGTGGAGGA, the “relative binding free energy” value was 0.21 kcal/mol. In the case of TTATTCACGTGCCTGG, the “relative binding free energy” value came out at 0.26 kcal/mol. Consider GGGCTCACGTGAAGGT, for which the “relative binding free energy” value was determined as 0.54 kcal/mol.

With AAAAGCACGTGTTGTG, the “relative binding free energy” value was -0.13 kcal/mol. As to AAGGACACGTGGGTAA, the “relative binding free energy” value is -0.02 kcal/mol. As to TTATCCACGTGGGTCT, the “relative binding free energy” value was -0.03 kcal/mol. For the sequence TGGTTCACGTGATCGT, the “relative binding free energy” value is 0.25 kcal/mol. As for TTGTGCACGTGTAGTT, the “relative binding free energy” value was determined as 0.1 kcal/mol.

Turning to AAGTACACGTGGTGGC, the “relative binding free energy” value was -0.02 kcal/mol. With TATTCCACGTGATTGG the figure was 0.17 kcal/mol; with GGCAGCACGTGAGGAT, 0.27 kcal/mol. GTAGGCACGTGTCGTG: the “relative binding free energy” value stood at 0.04 kcal/mol.

For TGTGGCACGTGCGACT, the “relative binding free energy” value is -0.15 kcal/mol.

Take TTAGACACGTGGTAGG: the “relative binding free energy” value turned out to be 0 kcal/mol. Regarding TATGTCACGTGATGAG, the “relative binding free energy” value was found to be 0.24 kcal/mol. As for GGGTTCACGTGACTTG, the “relative binding free energy” value came out at 0.43 kcal/mol.

On to AGGGGCACGTGCTGGA, for which the “relative binding free energy” value was -0.26 kcal/mol. Consider TGTGGCACGTGATATG, for which the “relative binding free energy” value came out at 0 kcal/mol. TTAGACACGTGATTTA: the “relative binding free energy” value turned out to be 0.18 kcal/mol. With AATGGCACGTGAGAGG the figure was 0.21 kcal/mol. Next, ATTGGCACGTGCTTTG: -0.09 kcal/mol; TTTTGCACGTGTGACA: 0.09 kcal/mol; ATAAGCACGTGGGAGA: -0.03 kcal/mol. Regarding CCGTGCACGTGGTTTG, the “relative binding free energy” value is -0.04 kcal/mol.

With TTATTCACGTGTGATT, the “relative binding free energy” value worked out at 0.34 kcal/mol. With TAGTACACGTGGTACT, the “relative binding free energy” value is -0.05 kcal/mol.

Regarding AGCATCACGTGTTGAG, the “relative binding free energy” value was 0.23 kcal/mol. Consider GGAGACACGTGTCGTG, for which the “relative binding free energy” value was -0.13 kcal/mol. Turning to CGTGTCACGTGGAAAT, the “relative binding free energy” value is 0.24 kcal/mol. Consider ATTGGCACGTGAAAAT, for which the “relative binding free energy” value was found to be 0.19 kcal/mol.

On to GGTAGCACGTGAAGAG, for which the “relative binding free energy” value stood at 0.29 kcal/mol. Take ACGGTCACGTGGTGGG: the “relative binding free energy” value is -0.02 kcal/mol. Regarding GCACGCACGTGGTTGG, the “relative binding free energy” value was -0.06 kcal/mol. For the sequence TATGGCACGTGATCTG, the “relative binding free energy” value was -0.09 kcal/mol. With GGTGTCACGTGGTGAA, the “relative binding free energy” value amounted to 0.06 kcal/mol. Next, TTTCACACGTGTTGAA: 0.09 kcal/mol; GGGAGCACGTGGAGGC: -0.09 kcal/mol; TGAACCACGTGGGTGG: -0.15 kcal/mol. TTGAACACGTGCTGTT: the “relative binding free energy” value is -0.09 kcal/mol. Consider TTTATCACGTGGGAGT, for which the “relative binding free energy” value is 0.02 kcal/mol. In the case of ACGTTCACGTGTGCGG, the “relative binding free energy” value was 0.19 kcal/mol.

Consider TACTACACGTGTTTTT, for which the “relative binding free energy” value is 0 kcal/mol. Take TTTAGCACGTGTCTTG: the “relative binding free energy” value is -0.07 kcal/mol.

Take GTGTACACGTGGTATA: the “relative binding free energy” value is -0.01 kcal/mol. For the sequence GTTTGCACGTGAGAAG, the “relative binding free energy” value turned out to be 0.2 kcal/mol. Turning to TTTACCACGTGGGTAT, the “relative binding free energy” value was -0.04 kcal/mol. Regarding TTGATCACGTGTGGAT, the “relative binding free energy” value worked out at 0.2 kcal/mol. With GTGTGCACGTGGGACT the figure was -0.08 kcal/mol; with AGTGTCACGTGTATTT, -0.05 kcal/mol. As to TTAGGCACGTGGTCAG, the “relative binding free energy” value was -0.28 kcal/mol. Regarding AGTTACACGTGTCGGA, the “relative binding free energy” value stood at 0.21 kcal/mol. In the case of GGCTGCACGTGGGAAT, the “relative binding free energy” value came to 0.06 kcal/mol. With TATGTCACGTGCGATT, the “relative binding free energy” value was 0.01 kcal/mol.

In the case of TTGAACACGTGGGGGT, the “relative binding free energy” value is -0.11 kcal/mol. For AGGTTCACGTGGGATC, the “relative binding free energy” value was determined as 0.33 kcal/mol. Consider GGAGGCACGTGGGAGG, for which the “relative binding free energy” value was -0.17 kcal/mol. Turning to TTTTGCACGTGGTGAT, the “relative binding free energy” value is -0.01 kcal/mol. For TTAATCACGTGGTCGT, the “relative binding free energy” value is -0.02 kcal/mol. Next, GTGAACACGTGTATGT: 0.14 kcal/mol. As for GGTAGCACGTGTTTTC, the “relative binding free energy” value is -0.03 kcal/mol. For the sequence CAAGGCACGTGTTTTG, the “relative binding free energy” value was -0.08 kcal/mol. For the sequence TACGGCACGTGGGCTT, the “relative binding free energy” value is -0.2 kcal/mol. With GAGATCACGTGGTATG the figure was -0.01 kcal/mol. As to GTCGACACGTGATGCG, the “relative binding free energy” value is 0.29 kcal/mol. Take CGTGACACGTGTGAGG: the “relative binding free energy” value came out at 0.06 kcal/mol. Turning to CGGCTCACGTGGTGGG, the “relative binding free energy” value stood at 0.02 kcal/mol. For TGAGACACGTGTGGGG, the “relative binding free energy” value came out at 0.03 kcal/mol. With TTGAGCACGTGGCCGT the figure was -0.04 kcal/mol; with CGAGGCACGTGAGGGC, 0.11 kcal/mol; with TTTCTCACGTGAGGTG, 0.48 kcal/mol. Next, CAGATCACGTGGGGCG: 0.06 kcal/mol; TGATACACGTGCTGTG: -0.09 kcal/mol.
